Measured values as given in paper PMC4336329 (PLoS ONE, 2015).
Out of some 310,000 compounds screened, about 2,200 (0.71%) showed an effect of 50% or more. The effect is printed as a negative number. This is one part of the list.

What follows are molecules tested against human ether-à-go-go-related gene (hERG) potassium channel (human, UniProt Q12809) (assay: primary screen, population patch clamp on CHO cells stably expressing hERG).
Chain of human ether-à-go-go-related gene (hERG) potassium channel (Q12809 whole entry, looked up): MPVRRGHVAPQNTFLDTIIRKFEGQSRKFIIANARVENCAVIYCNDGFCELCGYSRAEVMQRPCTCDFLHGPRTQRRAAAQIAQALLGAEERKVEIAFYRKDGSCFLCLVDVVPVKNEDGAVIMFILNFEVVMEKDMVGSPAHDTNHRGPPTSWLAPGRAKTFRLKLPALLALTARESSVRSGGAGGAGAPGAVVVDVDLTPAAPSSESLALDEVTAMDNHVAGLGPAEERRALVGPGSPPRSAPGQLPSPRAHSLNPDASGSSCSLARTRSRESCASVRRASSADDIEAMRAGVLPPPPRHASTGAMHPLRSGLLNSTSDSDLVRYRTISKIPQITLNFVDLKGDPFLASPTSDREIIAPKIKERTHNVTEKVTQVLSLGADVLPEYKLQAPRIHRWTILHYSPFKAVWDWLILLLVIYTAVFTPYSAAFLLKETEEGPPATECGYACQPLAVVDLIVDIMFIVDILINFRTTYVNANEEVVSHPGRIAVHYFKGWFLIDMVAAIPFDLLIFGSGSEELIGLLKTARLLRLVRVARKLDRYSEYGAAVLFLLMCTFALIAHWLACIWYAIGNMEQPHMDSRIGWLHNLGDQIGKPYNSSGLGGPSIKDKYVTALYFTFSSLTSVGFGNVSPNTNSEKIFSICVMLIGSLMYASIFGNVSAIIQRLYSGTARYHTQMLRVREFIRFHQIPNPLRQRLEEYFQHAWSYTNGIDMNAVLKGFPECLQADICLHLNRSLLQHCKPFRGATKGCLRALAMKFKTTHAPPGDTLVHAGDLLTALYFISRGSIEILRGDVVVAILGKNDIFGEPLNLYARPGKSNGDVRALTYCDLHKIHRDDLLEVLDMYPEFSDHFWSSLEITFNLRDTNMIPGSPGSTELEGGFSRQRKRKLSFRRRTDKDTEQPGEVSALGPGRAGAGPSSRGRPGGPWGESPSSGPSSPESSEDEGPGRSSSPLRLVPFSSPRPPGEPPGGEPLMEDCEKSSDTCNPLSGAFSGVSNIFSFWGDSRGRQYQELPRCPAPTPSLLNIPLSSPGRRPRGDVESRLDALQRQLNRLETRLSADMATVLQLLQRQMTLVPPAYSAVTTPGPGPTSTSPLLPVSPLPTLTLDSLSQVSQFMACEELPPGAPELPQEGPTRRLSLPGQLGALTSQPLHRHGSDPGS

Row | Compound | hERG current change (%, negative = inhibition) at 1uM
1 | O=C(NCc1cccnc1)C1CC(=O)N(c2ccc(F)cc2)C1 (stereo not drawn) | 3.05%
2 | CN(Cc1ccc(F)cc1)C(=O)c1cccc(OCc2ccccc2)c1 | 5.67%
3 | COc1cc(/C=C/C(=O)NCCc2ccc(S(N)(=O)=O)cc2)ccc1OCC#N | 9.48%
4 | Cc1oc(C(=O)O)cc1COc1ccc2c3c(c(=O)oc2c1C)CCC3 | 8.04%
5 | Cn1ccnc1SC(=O)N1c2ccccc2Sc2ccccc21 | 3.58%
6 | Cc1ccc(NC(=O)CCCCCCCCCCC2COCCO2)c(C)c1 (stereo not drawn) | 12.3%
7 | Cn1cnnc1Sc1ccc(/C=C/C(=O)c2ccc(O)cc2)cc1[N+](=O)[O-] | 7.42%
8 | COc1ccc(-c2cc(=O)[nH]c(=O)[nH]2)cc1 | 0.268%
9 | COc1ccc([N+](=O)[O-])cc1N(CC(=O)Nc1ccccc1C(=O)N1CCCC1)S(C)(=O)=O | -0.636%
10 | O=C1c2ccccc2C(Nc2ccc(Cl)cn2)N1c1ccccn1 (stereo not drawn) | 5.31%
11 | O=C(CSc1nnc(-c2cccnc2)n1Cc1ccccc1)NCc1ccccc1 | 12.8%
12 | CCc1ccc(NC(=O)C(=O)NNC(=O)c2cccs2)cc1 | 0.894%
13 | CCN(CC(=O)Nc1ccc(NC(C)=O)cc1)CC(=O)Nc1cccc(Cl)c1 | 3.34%
14 | CC1CCN(S(=O)(=O)c2ccc3c(c2)N(CC(=O)NCCCN2CCCCC2C)C(=O)CS3)CC1 (stereo not drawn) | 7.17%
15 | CC(=O)N1CC(=O)N=C1SCC(=O)Nc1nc(-c2ccccc2)c(-c2ccccc2)s1 | 2.78%
16 | C/C(=C1/SC(N2CCCC2)=NC1=O)c1ccc(Br)cc1 | -21.4%
17 | CCc1c(C)[nH]c(=S)c(C#N)c1C | 9.94%
18 | O=C(COc1ccc(Cl)cc1)NNC(=O)c1ccncc1 | 1.14%
19 | O=C(OCc1cccc(F)c1)c1ccc2c(c1)-c1ccccc1C2=O | -3.64%
20 | O=C(OC(C(=O)NCc1ccco1)c1ccc(Cl)cc1)c1cccs1 (stereo not drawn) | 8.46%
21 | COC(=O)c1nn(-c2ccccc2)nc1-c1nn(-c2ccccc2)nc1C(=O)OC.Cl | 9.09%
22 | O=C(Nc1ccc(S(=O)(=O)Nc2ncccn2)cc1)c1ccc(Cl)c([N+](=O)[O-])c1 | 10.9%

Row | Compound | hERG current change (%, negative = inhibition) at 1uM
23 | CC(C)Cc1ccc(CN2CCCC(NC(=O)c3cccc(-n4cnnc4)c3)C2)cc1 (stereo not drawn) | -49.7%
24 | CC(=O)Oc1cc2c(C(C)=O)coc2c2ccccc12 | 2.24%
25 | Cc1ccc2nc(N3C(=O)C(O)=C(C(=O)c4ccco4)C3c3cccs3)sc2c1.O=C(O)C(=O)O (stereo not drawn) | 3.52%
26 | O=C(CCc1ccccc1)NNC(=O)COc1ccc(Br)cc1 | 11%
27 | CCCC1Oc2ccccc2C(=O)N(CC(=O)c2ccc3c(c2)OCCO3)C1=O (stereo not drawn) | 20.8%
28 | O=C(O)/C=C/c1cn(-c2ccccc2)nc1-c1cccc([N+](=O)[O-])c1 | 11.9%
29 | CCOC(=O)C1=C(N)OC2=C(C(=O)CC(C)(C)C2)C1c1cccs1 (stereo not drawn) | 7.83%
30 | CC(Nc1nc(N2CCCC2)nc2ccccc12)c1ccccc1 (stereo not drawn) | -84.6%
31 | COc1ccc(CN2CCN(C(=O)C3CCN(S(=O)(=O)c4cccs4)CC3)CC2)c(OC)c1OC | 10.1%
32 | CC(C)N(Cc1cnn(C)c1)C(=O)c1ccc(OC2CCN(Cc3ccccn3)CC2)cc1 | 15.1%
33 | COC(=O)c1ccc(CSc2nc3ccc(C)cc3[nH]2)o1 | 8.54%
34 | CCOC(=O)c1c(-c2cccs2)csc1NC(C)=O | 9.04%
35 | O=C(c1cccc(-c2ccccc2)c1)N1CC[C@@H](N2CCC(O)CC2)[C@H](O)C1 | 6.95%
36 | Cc1ccccc1OCC(=O)NCC1CCCO1 (stereo not drawn) | 10.3%
37 | N#Cc1c(F)cccc1N1CCC(C#N)CC1 | 12.9%
38 | Cc1ccc(CC(=O)N2CCN(c3cccc(C(F)(F)F)c3)CC2)cc1 | 3.13%
39 | CC1=C(C(=O)NC2CCCc3c2cnn3-c2ccc(F)cc2F)OCCO1 (stereo not drawn) | 16%
40 | Cc1cccc2c3c([nH]c12)C(=O)CC(C)(C)S3 | 13%
41 | NC(=O)C1CCN(C(=O)c2ccc(C(F)(F)F)cc2)CC1 | 5.61%
42 | O=C(CN1CCOc2ccccc21)N1CCC(Cc2ccccc2)CC1 | 7.19%
43 | COc1ccc(CN2CCNC(=O)C2CC(=O)NC2CCCCC2)c(OC)c1 (stereo not drawn) | 7.83%
44 | CCCNC(=O)/C=C/c1ccc(S(=O)(=O)Nc2ccccc2OC)cc1 | 5.44%

Row | Compound | hERG current change (%, negative = inhibition) at 1uM
45 | COC(=O)CNC(=O)COc1ccccc1 | 7.31%
46 | CN1CCN(c2ccc(S(=O)(=O)N3CCCCC3)cc2NC(=O)/C=C/c2ccc(Cl)c([N+](=O)[O-])c2)CC1 | 6.68%
47 | CC(=O)c1c(C(C)=O)c(C)n(-c2nc(-c3ccc(Br)cc3)c(C)s2)c1C | 14%
48 | S=c1[nH]nc(-c2cc3c(s2)-c2ccccc2CC3)o1 | 14.5%
49 | CCOC(=O)N1CCC(NC(=O)c2cnc3n(c2=O)CCS3)CC1 | 14%
50 | CCC(C)(C(=O)NC1CCCCC1)N(Cc1cccs1)C(=O)CC1NC(=O)NC1=O (stereo not drawn) | 5.57%
51 | COc1ccccc1N1CCN(C(=O)C(C)N(c2ccc(C)c(C)c2)S(C)(=O)=O)CC1 (stereo not drawn) | 4.93%
52 | Cc1cc(OCC(=O)N2CCC[C@@H]2C(=O)O)c2c(C)c(C)c(=O)oc2c1 | 13.2%
53 | N#Cc1ccc(C(=O)OCC(=O)NC(=O)NC2CCCCC2)cc1 | 12.3%
54 | Cc1cc(NC(=O)/C=C/C(=O)N(CC(=O)NC2CCCC2)c2cccc3ccccc23)no1 | 4.93%
55 | COc1cc(OC)c(NC(=O)CCNC(=O)Cn2ccc3ccccc3c2=O)cc1Cl | 12.3%
56 | CC(C)(C)n1nc(-c2ccc(Cl)cc2)c2c(N)ncnc21 | 6.91%
57 | CCC(=O)Nc1ccccc1C(=O)OCC(=O)c1ccccc1 | 4.17%
58 | O=S1(=O)CCC(NS(=O)(=O)/C=C/c2ccccc2)C1 (stereo not drawn) | -3.6%
59 | CCC(=O)Oc1c(S(=O)(=O)c2ccc(C)cc2)c(C)nn1C(C)(C)C | 5.44%
60 | CCOC(=O)c1cc2n(c1/N=C/N(C)C)-c1ccccc1C2=O | 10.2%
61 | COc1ccc(-c2cc(C)no2)cc1S(=O)(=O)N1CCOc2ccc(Cl)cc21 | 8.79%
62 | O=C(NNC(=O)c1cc2cc(Br)ccc2oc1=O)c1ccc(O)cc1O | 9.88%
63 | CN1C(=O)C(=CN2CCN(C(=O)c3ccco3)CC2)C(=O)N(C)C1=S | 11.1%
64 | Cc1ccc(C(=O)NCCOc2ccc(Cl)cc2)cc1 | -1.72%
65 | Cn1c(CNC(=O)CNS(=O)(=O)c2ccccc2)cc(=O)n(C)c1=O | 17.2%
66 | Cc1ccc(-c2nnc(-c3cccc(Br)c3)o2)cc1 | 8.38%

Row | Compound | hERG current change (%, negative = inhibition) at 1uM
67 | CCOC(=O)c1ccc(NS(=O)(=O)c2cc3c4c(c2)CCN4C(=O)CC3)cc1 | -2.78%
68 | O=C1COc2ccc(S(=O)(=O)CCC(=O)NC3CCCCC3)cc2N1 | 11%
69 | Br.CC(=O)c1sc(Nc2ccccn2)nc1C | 9.58%
70 | NS(=O)(=O)c1ccc(N=Nc2c(O)[nH]c3ccc(Br)cc23)cc1 | 14.6%
71 | CCCNC(=O)COC(=O)c1ccc(Cl)c(S(=O)(=O)N2CCCC2)c1 | 2.33%
72 | CCn1ccnc1[C@@H]1C[C@H]2CN(Cc3ccccc3OC)C(=O)[C@]23CCCN13 | 19.8%
73 | Cc1cc([N+](=O)[O-])ccc1NC(=O)CSc1nccc(=O)[nH]1 | 9.48%
74 | Cc1ccc(S(=O)(=O)Nc2ccc3c(c2)nc(CCN2CCN(c4ccccn4)CC2)n3C)cc1 | -80.7%
75 | CSc1ccc(CN(C)CC(=O)NCc2ccc(F)cc2)cc1 | -19.3%
76 | COc1cc(C(=O)NC2=C(C#N)CCC2)cc(OC)c1OC | 13.8%
77 | CCOc1ccc(N2C(=O)CC(N3CCN(c4ccccc4F)CC3)C2=O)cc1 (stereo not drawn) | 7.52%
78 | Cc1ccc(NC(=O)CCc2nnc3ccc(NCc4ccco4)nn23)cc1F | -17.2%
79 | CCS(=O)(=O)c1nc(S(=O)(=O)c2ccc(C)cc2)c(N2CCC(O)CC2)s1 | 4.52%
80 | Oc1ccc(Cl)cc1CNn1cnnc1 | 11.9%
81 | COc1cc(C(=S)N2CCOCC2)cc(OC)c1OC(=O)c1cccc(C)c1 | 7.14%
82 | CC(C)CCn1c(=O)c2ccccc2n2c(CCl)nnc12 | -4.95%
83 | COc1ccc(OC)c(C2NC(=O)c3sc(=S)n(-c4ccccc4)c3N2)c1 (stereo not drawn) | 11.7%
84 | CC(C)(C)C(=O)NC1(C(F)(F)F)N=C2SCCN2C1=O (stereo not drawn) | -3.28%
85 | COc1ccc(C(=O)Nc2nnc(SCC(=O)NCc3ccco3)s2)cc1OC | 8.41%
86 | CCOC(=O)c1cc(-c2ccccc2)sc1NC(=O)C(C)OC(=O)c1cccc(S(=O)(=O)N(C)C)c1 (stereo not drawn) | 15.6%
87 | CNC(=O)N(C)c1ccc(C(O)(C(=O)OC)C(F)(F)F)cc1 (stereo not drawn) | 12.5%
